Assay results reported in the antibiotic and cytotoxicity screens of Wong et al. (2023).
The list shows a part of the results.

system: HSkMC (human skeletal muscle cells); assay: cytotoxicity call (relative viability < 0.9); details: 10 µM

SMILES | cytotoxicity call
O=C(C[C@H]1C=C[C@H](NS(=O)(=O)c2ccccc2)[C@@H](CO)O1)NCc1ccncn1 | inactive
CCOC(=O)c1cc2c(c(-c3ccccc3)n1)[C@@H](CCO[Si](C)(C)C(C)(C)C)N([S@](=O)C(C)(C)C)C2 | inactive
COCC(=O)Nc1ccc2c(c1)C(=O)N(C)C[C@H](OC)[C@H](C)CN(Cc1ccccc1OC)[C@H](C)CO2 | inactive
C[C@@H]1CN([C@@H](C)CO)C(=O)c2cc(NC(=O)Nc3ccccc3)ccc2O[C@@H]1CN(C)S(=O)(=O)c1cn(C)cn1 | inactive
CO[C@H]1CN(C)C(=O)c2cc(NC(=O)c3ccc(F)cc3)ccc2OC[C@H](C)N(C(=O)CN(C)C)C[C@@H]1C | inactive
C[C@H](CO)N1C[C@H](C)[C@@H](CN(C)C)Oc2ccc(NS(C)(=O)=O)cc2CC1=O | inactive
CC(C)NC(=O)N(C)C[C@H]1Oc2c(NC(=O)C3CCCCC3)cccc2C(=O)N([C@@H](C)CO)C[C@@H]1C | inactive
COc1ccc(S(=O)(=O)Nc2ccc3c(c2)CC(=O)N([C@H](C)CO)C[C@H](C)[C@@H](CN(C)S(C)(=O)=O)O3)cc1 | inactive
C[C@@H]1CN([C@@H](C)CO)C(=O)c2cc(NC(=O)Nc3cccc4ccccc34)ccc2O[C@@H](C)CCCCO[C@H]1CN(C)Cc1ccc(Cl)c(Cl)c1 | inactive
CCC1(c2ccccc2)NC(=O)N(C)C1=O (stereo unspecified) | inactive
C[C@H]1CN([C@@H](C)CO)C(=O)Cc2cc(NC(=O)CCN3CCOCC3)ccc2O[C@@H]1CN(C)Cc1ccc2c(c1)OCO2 | inactive
